Laboratory results as given in the supplement of paper PMC11417369.
Some of the results follow.

What follows are sequences tested on PfAP2-HC AP2 domain (GST-tagged) (assay: gcPBM binding intensity (ln(normalized median fluorescence intensity)); higher = stronger DNA binding).
How it was run: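 An Agilent 4 × 180k array carrying primer-extended double-stranded 36-bp intergenic genomic probes and negative controls received GST-tagged P. falciparum DNA-binding domains expressed in E. coli, about 25 μg on average, for 1 h. The binding buffer contained 1× PBS, 1% milk, 0.2 mg/ml BSA, 0.5% salmon testes DNA and 0.03% Triton X-100. Binding intensity is the top Masliner-normalised natural-log median intensity across replicate spots of either probe orientation, read after Alexa488 anti-GST antibody staining and a 488 nm scan.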

Sequence | gcPBM binding intensity (ln)
ACTGTGGTATAAAGTTGTACATGTTTTTATATATTT [XGTACX_site5257] | 10
TTACTTTAACCTTCTCGTACTTATTTACTTTATTCT [XGTACX_site7801] | 9.9
TCGATTAAAACACAAAAATATAAATACATTGATAAA [TGCATGCA_negctrl_site523] | 9.44
TTAATAAATATGTTTACACACGAAAATACATTTTTT [CACACA_site8245] | 9.81
TTAAAAGTTATGGATACACACATATAAATATAGATT [CACACA_site7175] | 9.84
ATTTTAATTTTTTAAGTATTATATGAATATTTATTA [TGCATGCA_negctrl_site142] | 9.48
ACATATATATATATATATATATATATATATTCTTAA [CACACA_negctrl_site930] | 9.41
TAATTTTCATAATTTTGTACTTAACGTTTTACCTTG [XGTACX_site8048] | 9.72
CACACGCACGAACACACACACACACGCGCACATATA [CACACA_site6304] | 11
GTCTAAAAATAAAAAGTGCATTTGTTTAATATTTTG | 9.6
TTAATTTTTTTTTTTTGTACTCATATGTAATTCATC [XGTACX_site3071] | 9.51
TGATTGTATTAAAATGCACACATATCAAGAGGAATT [CACACA_site7985] | 9.85
TATTATTATTATTATTTTAAAAGAAATAAAAATATG [XGTACX_negctrl_site119] | 9.19
ATTAAAACAAATATGTGTACATAAAAATATATATAT [XGTACX_site8394] | 9.8
CTGTGTTTTGGTTGTACACACGCTACATTATATATT [CACACA_site5487] | 10.1
TATTTTATCATTTTTTTTATGTCTTTATTTCACTTG [CACACA_negctrl_site1398] | 9.68
ATATACATTAAATGAACACACATAAATAAATTACAT [CACACA_site2852] | 9.89
TTTTAATTTTGTTGTTGTACAAATAACATGTGAGGG [XGTACX_site4401] | 9.53
ATATATATATATATATCATTTATTTAAAAATTTTTT [TGCATGCA_negctrl_site228] | 9.42
CTCATTTTTGTACAGGTGCACTTATCGTTACACTAT | 9.93
AACACATAAAAAAGGTGTACCATAAAATATACATAC [XGTACX_site4478] | 9.86
ATATACACATTAATAACACACAATATGATAACAAAT [CACACA_site7670] | 10

Sequence | gcPBM binding intensity (ln)
TAGAATTAAGTTATTGCACACAGGAAAAGTTTCATA [CACACA_site1634] | 9.77
AATCCTTACGAACACACACACACGAATAAATAAAAA [CACACA_site6363] | 10.8
ATAAATAAGAAAAATTGTACAATATTTTTTAGGATA [XGTACX_site3163] | 9.69
TCTTCGAAACTATCACTCTCACAATTCATTTATTTT [TGCATGCA_negctrl_site156] | 9.82
AAAAGTTTAAGTTTTCGAAAATTTACCAAAAAAAAA [CACACA_negctrl_site1644] | 9.6
GTGCATAAATCATACACACACACATATATAAATATA [CACACA_site7188] | 10.7
GTGTTTTTATGTGAATGTACATATTTACTATCACAC [XGTACX_site2388] | 9.97
AAAGTTTTTATAAAAAAAAAAATAAATACCATATAT [XGTACX_negctrl_site113] | 10.1
TGGTAATCCACATACACACACACATACACATATATA [CACACA_site2727] | 10.3
AAGAAAAAAAAAATTACACACTGCGCAGATACACAA [CACACA_site1289] | 9.86
TAATATGTATATAAAAGTACAGACGATTATAATTAT [XGTACX_site173] | 9.81
TTTTGTAGATATGACTGTACATATTTTATACATAAC [XGTACX_site971] | 9.64
AAAAAATAAATAAATACACACAAATATATATATATA [CACACA_site2543] | 10.3
ATATATATATGTAAGAGTACACAAAAATATGTATGT [XGTACX_site4335] | 10
CACATACCTATATACACACACAAAATAATAAAATAA [CACACA_site7150] | 10.2
AGAATGGATTAGCTAGCACACACAAAAAAAAAAAAA [CACACA_site8995] | 9.84
ACTAATATTTTATAAAGTACAAATTAATAAAATTCA [XGTACX_site5817] | 9.42
TATATATATATATTGACACACATGTATTTCAATATT [CACACA_site2832] | 9.79
AAGACAACATAAATATGTACATATATTTATTATTTT [XGTACX_site1792] | 9.74
TACAAAAAGAATGAAAAATATATAATAAAAATAAAA [XGTACX_negctrl_site159] | 9.65
AAGTATGGAAAGGAATATAAATTAATACTTTCATTG [XGTACX_negctrl_site131] | 9.55
TCATAACAACTTTGTGTGCACATAAAACATGTATAT | 10.3

Sequence | gcPBM binding intensity (ln)
TTTTTTTTTTCATTCACACAAAAAAAAAAAATTTAT [CACACA_site5921] | 9.26
TATAAGACATGATATATACACACCTTGTTTTAATTT [CACACA_site2266] | 9.79
ATATGAATATATATATGTACTAATTAGTAGTTTACG [XGTACX_site6273] | 9.85
AATAAAAATATATCCACACACATATATATATATGTA [CACACA_site576] | 9.95
AGAAATTTACAAATACGTACACACATATATATATAT [XGTACX_site3141] | 10
GAAGATATGTAAAATTGTACATATTATTTTATTTTA [XGTACX_site5302] | 9.47
CTGATCCACATTTATACACACCTCGGTTTGTAGAGA [CACACA_site4393] | 9.67
AAAATATATAATATTTGTACATATTGATGGCAACAG [XGTACX_site6454] | 9.76
TTTTACACTTTTTTTTGTACACACTAAAAAGATTAA [XGTACX_site8407] | 9.65
AAAGGTTCATAAAAATGTACATAATTATTTACATGT [XGTACX_site2722] | 9.62
CAAATCATATATAGCACACAAATTCTTTATTATTAT [CACACA_site2815] | 9.71
CACAAAAATAAACACACACACATATATATTTATTAT [CACACA_site5923] | 11.1
TAAATTAAAAGACACACACACAAAAAAAAAAAAAAA [CACACA_site7131] | 10.2
GGAAACTAAAGGAATAAAACTATGGAAATTAATTAA [CACACA_negctrl_site1647] | 9.55
TACTATTTAAAATATGAACACACATTATTTGTTTTA [CACACA_site8870] | 9.72
AGATGATATAATGGCACACAAATATTTTATTATAAA [CACACA_site3553] | 9.8
TAAATTTATAAATCACGTACATATTTATTTATATTT [XGTACX_site4532] | 9.61
ATAATTTCATAATACGTGCACATAATATATAAAAAA | 9.74
ATTCAAAATTATAGGTGTACGTATTTTTTTTTTTTT [XGTACX_site7177] | 9.59
TAAATATAATAAGAACAAACAAAATAGTACAATATA [TGCATGCA_negctrl_site364] | 10.2
TTTTTTTTAAATTGTGGTACACAAATTCATATATAT [XGTACX_site8944] | 9.67
AAAAGAAAAAAAAGTACACACATGTATATTAATCGT [CACACA_site2528] | 10.1

Sequence | gcPBM binding intensity (ln)
GTCATATTATTATTACGTACTTAAATATATAATATA [XGTACX_site3405] | 9.73
TGTTAACTTAAAAAAATACCTACGGAAAAATCACAA [TGCATGCA_negctrl_site433] | 9.56
TATTTCGTAATTTAATAATATACAAGAAATATATAT [XGTACX_negctrl_site143] | 9.4
TATGTGTATAATAAAAGTACATATATTATTATATAA [XGTACX_site8556] | 9.63
ATTGACGTCATATAAACATGCACATTTTGGATGTTT [TGCATGCA_site985] | 9.63
TAAAATAATAAAACAACACACAAATAGTTAAAATAG [CACACA_site1680] | 10.3
CATATAATAAAAAATGTACACACATAAGAAAATTTA [CACACA_site8943] | 9.92
AAGATAAACTTTTTTAATTAATTTAATTTTTTTTTT [GTGCAC_negctrl_site386] | 9.51
AATAAATAAAAAATTACACACATATTTATAAATATA [CACACA_site7584] | 9.83
TTTGTTTTTATTTACACATGCAAAAAAAAAAAAAAA [TGCATGCA_site655] | 9.14
ATATATATATATATTCCACACACACCCAAAAAAAAA [CACACA_site9215] | 10.8
TAAAATAAGTTAAAAAGTACATAATTATAATAAATA [XGTACX_site8108] | 9.66
CACAAAAATAAATATAAACACACAATAAATAAATAA [CACACA_site8197] | 10.1
TTATAATAGTTAATATGTACATATTTAATAAATAAT [XGTACX_site3183] | 9.51
CCCCCCCACGAACACACACACATACATACCACATAT [CACACA_site7149] | 11
TACAAAATACAAAAATGTACATAAAAATTTATAAAA [XGTACX_site6861] | 9.69
ATATTAAAATATAATCGTACAATTAAATTTTTTTTT [XGTACX_site2739] | 9.54
TACAGATACGGACACACACACACACCCAGACAAAAA [CACACA_site4432] | 11
ATATAGAATATATTAACATGCAATAAGTAAAGGGGG [TGCATGCA_site1022] | 9.87
ACAATGAAATATTCATGTACATATAAATAATAGTGT [XGTACX_site3762] | 9.77
CACTTCATAAAAATTGCACACATATAATAATGTACA [CACACA_site8692] | 9.79
TCATATAATCAAATATGTACATATTTTCAATTGAAT [XGTACX_site6831] | 9.64
